# Where “and” joins values, the source holds several entries; their conditions need not be identical. Equal values may be shown once. Where a name gives a salt, the structure may show the parent alone. The campaign covered roughly 5,800 compounds. About 620 (11%) showed activity.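 Rule for the calls: active = score above a cut-off or among the top three wells of a plate; in these data no inactive exceeds 0.85.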 Only a part is listed here, and it is no random draw.
# Tested on: primary human hepatic stellate cells (donor 1)
# Assay: scaled lipid accumulation score (0 = DMSO-like, 1 = nortriptyline-like); higher = stronger HSC inactivation (lipid re-accumulation), active = hit call of the paper
# Details: 48 h
# [1] = library stock concentration: 10 mM
# [2] = library stock concentration: 3.33 mM
# [3] = library stock concentration: 1 mM
# [4] = library stock concentration: 80 uM
# [5] = library stock concentration: 400 uM
# [6] = library stock concentration: 7 mM
smiles,measurement,setting,value
CC[n+]1c(-c2ccccc2)c2cc(N)ccc2c2ccc(N)cc21 [Homidium bromide],scaled lipid accumulation score,[1],inactive: 0.654
Cc1ccc(-c2c(-c3nn(C)c4ncnc(N5CC[C@H](N6CCCCC6)C5)c34)cnn2C)cc1,scaled lipid accumulation score,[2],inactive: ≤ 0
same,scaled lipid accumulation score,[1],inactive: 0.091
CCOC(=O)/C=C/[C@H](CC(C)C)NC(=O)[C@H](CO)NC(=O)[C@@H](NC(=O)c1cccc(O)c1C)C(C)C,scaled lipid accumulation score,[3],inactive: ≤ 0
COc1ccc(CCC(C)NC2CC(C)(C)NC(C)(C)C2)cc1 (configuration not stated),scaled lipid accumulation score,[1],active: 0.998
O=C1c2c(O)cc(O)cc2O[C@H](c2cc(O)c(O)c(O)c2)[C@H]1O [Dihydromyricetin],scaled lipid accumulation score,[2],inactive: ≤ 0
same,scaled lipid accumulation score,[1],inactive: ≤ 0
CNCCCN1c2ccccc2CCc2ccccc21 [Desipramine hydrochloride],scaled lipid accumulation score,library stock concentration: 6.6 mM,inactive: 0.471
same,scaled lipid accumulation score,[1],inactive: 0.667
CC(C)(C(=O)NCC(F)(F)C(F)(F)F)C(=O)N[C@@H]1C(=O)Nc2ccccc2-c2ccccc21,scaled lipid accumulation score,[2],inactive: ≤ 0
same,scaled lipid accumulation score,[1],inactive: ≤ 0
O=C(O)CCNC(=O)c1ccc(/N=N/c2ccc(O)c(C(=O)O)c2)cc1 [Balsalazide Sodium],scaled lipid accumulation score,,inactive: 0.061
O=C(O)CCNC(=O)c1ccc(/N=N/c2ccc(O)c(C(=O)O)c2)cc1,scaled lipid accumulation score,[1],inactive: ≤ 0
COc1cc(Nc2ncc(F)c(Nc3ccc4c(n3)NC(=O)C(C)(C)O4)n2)cc(OC)c1OC.O=S(=O)(O)c1ccccc1,scaled lipid accumulation score,[1],active: 0.882
CCOc1cc(N)c(Cl)cc1C(=O)NCC1CN(Cc2ccc(F)cc2)CCO1 (configuration not stated),scaled lipid accumulation score,[1],inactive: ≤ 0
CCOc1cc(N)c(Cl)cc1C(=O)NCC1CN(Cc2ccc(F)cc2)CCO1 (configuration not stated) [Mosapride Citrate],scaled lipid accumulation score,[2],inactive: 0.016
same,scaled lipid accumulation score,[1],inactive: 0.048
CCC(C)n1ncn(-c2ccc(N3CCN(c4ccc(OCC5COC(Cn6cncn6)(c6ccc(Cl)cc6Cl)O5)cc4)CC3)cc2)c1=O (configuration not stated) [Itraconazole],scaled lipid accumulation score,library stock concentration: 2.8 mM,inactive: ≤ 0
same,scaled lipid accumulation score,[2],inactive: 0.492
same,scaled lipid accumulation score,[1],inactive: 0.522
Cc1cccc(Nc2ccccc2C(=O)O)c1C [Mefenamic acid],scaled lipid accumulation score,,inactive: ≤ 0
same,scaled lipid accumulation score,library stock concentration: 8.3 mM,inactive: ≤ 0
same,scaled lipid accumulation score,[1],inactive: 0.083
Cc1cccc(Nc2ccccc2C(=O)O)c1C [Mefenamic Acid],scaled lipid accumulation score,[2],inactive: ≤ 0
same,scaled lipid accumulation score,[1],inactive: ≤ -0.001
Cc1cccc(Nc2ccccc2C(=O)O)c1C,scaled lipid accumulation score,[1],inactive: ≤ 0
CCCCC[C@@H](O)/C=C/[C@H]1C(=O)C[C@H](O)[C@@H]1C/C=C\CCCC(=O)O [15(R)-Prostaglandin D2],scaled lipid accumulation score,[3],inactive: ≤ 0
C[n+]1ccccc1/C=N/O,scaled lipid accumulation score,[1],inactive: ≤ 0
C[n+]1ccccc1/C=N/O [Pralidoxime chloride],scaled lipid accumulation score,,inactive: ≤ 0
same,scaled lipid accumulation score,library stock concentration: 11.6 mM,inactive: ≤ 0
CCCCCCCCCCCCCCCC(=O)NC(CO)CO [Palmitoyl Serinol],scaled lipid accumulation score,[3],inactive: 0.026
CCCCC/C=C\C/C=C\C/C=C\C/C=C\CCCCN1C(=O)C=CC1=O [N-Arachidonyl Maleimide],scaled lipid accumulation score,[3],inactive: ≤ 0
Cl[H].CN1CC\C(=C(/c2c(cccc2)C=C3)\c(cccc4)c34)\CC1 [Cyproheptadine hydrochloride],scaled lipid accumulation score,[1],active: 1.04
CC(N)C(=O)OC(C)(C)Cc1ccc(Cl)cc1 (configuration not stated) [Alaproclate],scaled lipid accumulation score,[1],inactive: 0.165
CC(N)C(=O)OC(C)(C)Cc1ccc(Cl)cc1 (configuration not stated) [Alaproclate hydrochloride],scaled lipid accumulation score,[1],inactive: 0.774
CC(NC(=O)Cc1cc(F)cc(F)c1)C(=O)NC1C(=O)N(C)c2ccccc2-c2ccccc21 (configuration not stated),scaled lipid accumulation score,[2],inactive: ≤ 0
same,scaled lipid accumulation score,[1],inactive: 0.235
CN(CCOc1ccc(C[C@H](Nc2ccccc2C(=O)c2ccccc2)C(=O)O)cc1)c1ccccn1,scaled lipid accumulation score,[1],inactive: 0.02
CCN(CC)CCNC(=O)COc1ccc(OC)cc1 [Mefexamide hydrochloride],scaled lipid accumulation score,,inactive: ≤ 0
CCN(CC)CCNC(=O)COc1ccc(OC)cc1 [Mefexamide],scaled lipid accumulation score,library stock concentration: 6.3 mM,inactive: 0.018
same,scaled lipid accumulation score,[1],inactive: ≤ 0
C=CCn1c(=O)c2cnc(Nc3ccc(N4CCN(C)CC4)cc3)nc2n1-c1cccc(C(C)(C)O)n1,scaled lipid accumulation score,[4],inactive: ≤ -0.009
same,scaled lipid accumulation score,[5],inactive: 0.06
same,scaled lipid accumulation score,library stock concentration: 2 mM,inactive: 0.137
same,scaled lipid accumulation score,[2],inactive: ≤ 0
same,scaled lipid accumulation score,[1],inactive: ≤ 0 and inactive: 0.188
CCOc1ccc(NC(=O)CC(C)O)cc1 (configuration not stated),scaled lipid accumulation score,[1],inactive: ≤ 0
Clc1ccc(C(Cn2ccnc2)OCc2csc3c(Cl)cccc23)c(Cl)c1 (configuration not stated) [Sertaconazole nitrate],scaled lipid accumulation score,,inactive: ≤ 0
same,scaled lipid accumulation score,[2],inactive: ≤ 0
same,scaled lipid accumulation score,[1],inactive: 0.479
CC(=O)OCC1=C(C(=O)O)N2C(=O)[C@@H](NC(=O)Cc3cccs3)[C@H]2SC1 [Cephalothin sodium salt],scaled lipid accumulation score,,inactive: ≤ 0
CC(=O)OCC1=C(C(=O)O)N2C(=O)[C@@H](NC(=O)Cc3cccs3)[C@H]2SC1 [Cephalothin sodium],scaled lipid accumulation score,library stock concentration: 4.8 mM,inactive: ≤ -0.001
same,scaled lipid accumulation score,[1],inactive: ≤ 0 and inactive: 0.057
O=C(Nc1cccc2cccnc12)c1ccc(N2C(=O)[C@@H]3[C@H](C2=O)[C@@H]2C=C[C@H]3C2)cc1 [endo-IWR 1],scaled lipid accumulation score,[1],inactive: ≤ -0.001
CN(C)CCCN1c2ccccc2CCc2ccc(Cl)cc21.Cl [Clomipramine HCl],scaled lipid accumulation score,[1],active: 0.83
CC1(C)S[C@@H]2[C@H](NC(=O)Cc3ccccc3)C(=O)N2[C@H]1C(=O)O [Penicillin g potassium],scaled lipid accumulation score,library stock concentration: 5.4 mM,inactive: ≤ -0.001
CC1(C)S[C@@H]2[C@H](NC(=O)Cc3ccccc3)C(=O)N2[C@H]1C(=O)O [Benzyl penicillin potassium],scaled lipid accumulation score,[1],inactive: ≤ 0
CC1(C)S[C@@H]2[C@H](NC(=O)Cc3ccccc3)C(=O)N2[C@H]1C(=O)O [Benzathine benzylpenicillin],scaled lipid accumulation score,,inactive: ≤ 0
CC1(C)S[C@@H]2[C@H](NC(=O)Cc3ccccc3)C(=O)N2[C@H]1C(=O)O [Penicillin G Sodium],scaled lipid accumulation score,[2],inactive: ≤ 0
same,scaled lipid accumulation score,[1],inactive: ≤ -0.001
CC1(C)S[C@@H]2[C@H](NC(=O)Cc3ccccc3)C(=O)N2[C@H]1C(=O)O [Benzylpenicillin sodium],scaled lipid accumulation score,,inactive: ≤ 0
CC1(C)S[C@@H]2[C@H](NC(=O)Cc3ccccc3)C(=O)N2[C@H]1C(=O)O [Pfizerpen],scaled lipid accumulation score,[1],inactive: ≤ 0
CCCCc1nc(Cl)c(CO)n1Cc1ccc(-c2ccccc2-c2nnn[nH]2)cc1 [Losartan],scaled lipid accumulation score,library stock concentration: 4.7 mM,inactive: ≤ 0
same,scaled lipid accumulation score,[1],inactive: ≤ -0.027
CCCCc1nc(Cl)c(CO)n1Cc1ccc(-c2ccccc2-c2nnn[nH]2)cc1 [LOSARTAN Potassium],scaled lipid accumulation score,[1],inactive: ≤ 0
CCCCc1nc(Cl)c(CO)n1Cc1ccc(-c2ccccc2-c2nnn[nH]2)cc1 [Losartan Potassium (DuP 753)],scaled lipid accumulation score,[2],inactive: ≤ 0
same,scaled lipid accumulation score,[1],inactive: ≤ 0
COc1cc(Nc2ncc3ccn(-c4cccc(CCC#N)c4)c3n2)cc(OC)c1OC [Keratinocyte Differentiation Inducer],scaled lipid accumulation score,[2],inactive: 0.501 and inactive: ≤ 0
O=C1CCC(N2C(=O)c3ccccc3C2=O)C(=O)N1 (configuration not stated) [Thalidomide],scaled lipid accumulation score,,inactive: ≤ 0
same,scaled lipid accumulation score,[2],inactive: 0.023
same,scaled lipid accumulation score,library stock concentration: 7.7 mM,inactive: ≤ 0
same,scaled lipid accumulation score,library stock concentration: 19.4 mM,inactive: ≤ -0.012
O=C1CCC(N2C(=O)c3ccccc3C2=O)C(=O)N1 (configuration not stated) [(?)-Thalidomide],scaled lipid accumulation score,[1],inactive: ≤ 0
O=C(OC[C@@H]1O[C@H]1c1ccccc1)Oc1ccc([N+](=O)[O-])cc1,scaled lipid accumulation score,[3],inactive: ≤ 0
CSc1ccccc1N1CCN(CCCCCC(=O)NC2CCCc3ccccc32)CC1.Cl (configuration not stated),scaled lipid accumulation score,[1],active: 1.06
c1cn2cc(-c3ccc4cn[nH]c4c3)nc(Nc3ccc(N4CCOCC4)cc3)c2n1 [Entospletinib],scaled lipid accumulation score,[4],inactive: ≤ 0
same,scaled lipid accumulation score,[5],inactive: 0.023
CCCCCCCCCCOCCC(=O)O [4-Oxatetradecanoic acid],scaled lipid accumulation score,[3],inactive: 0.156
CN/C(=N\c1ccc(C2=NNC(=O)CC2C)cc1)NC#N (configuration not stated) [Siguazodan],scaled lipid accumulation score,[6],inactive: ≤ 0
same,scaled lipid accumulation score,[1],inactive: 0.01
COc1nc(N)nc2c1ncn2[C@@H]1O[C@H](CO)[C@@H](O)[C@@H]1O [Nelarabine],scaled lipid accumulation score,[2],inactive: ≤ 0
same,scaled lipid accumulation score,[1],inactive: ≤ 0
O=C(CCCN1CCC(O)(c2cccc(C(F)(F)F)c2)CC1)c1ccc(F)cc1 [Trifluperidol 2HCl],scaled lipid accumulation score,library stock concentration: 4.9 mM,inactive: 0.327
O=C1NC(=O)c2c1c1c3ccccc3[nH]c1n1cncc21 [Isogranulatimide],scaled lipid accumulation score,[2],inactive: ≤ 0
CN(C)CCCn1cc(C2=C(c3c[nH]c4ccccc34)C(=O)NC2=O)c2ccccc21 [Bisindolylmaleimide I],scaled lipid accumulation score,[2],inactive: 0.663
CN(C)CCCn1cc(C2=C(c3c[nH]c4ccccc34)C(=O)NC2=O)c2ccccc21,scaled lipid accumulation score,[2],inactive: 0.071
same,scaled lipid accumulation score,[1],inactive: 0.777
same,scaled lipid accumulation score,library stock concentration: 12.1 mM,inactive: 0.519
O=c1c2ccccc2nc2n1CCc1c-2[nH]c2ccccc12 [Rutaecarpine],scaled lipid accumulation score,[2],inactive: ≤ 0
same,scaled lipid accumulation score,[1],inactive: 0.58
O=C(/C=C/C=C/c1ccc2c(c1)OCO2)N1CCCCC1 [Piperine],scaled lipid accumulation score,,inactive: 0.146
same,scaled lipid accumulation score,[2],inactive: 0.026
same,scaled lipid accumulation score,[6],inactive: ≤ 0
same,scaled lipid accumulation score,[1],inactive: ≤ 0
COc1ccc2[nH]c(C(=O)c3ccccc3)cc2c1,scaled lipid accumulation score,[1],inactive: 0.038
O=C(O)C(S)=Cc1c[nH]c2ccc(F)cc12,scaled lipid accumulation score,[2],inactive: ≤ -0.009
same,scaled lipid accumulation score,[1],inactive: 0.118
CCC(=O)OCC(=O)[C@@]1(OC(=O)CC)[C@@H](C)C[C@H]2[C@@H]3CCC4=CC(=O)C=C[C@]4(C)[C@@]3(Cl)[C@@H](O)C[C@@]21C [Beclomethasone dipropionate],scaled lipid accumulation score,,inactive: ≤ 0
same,scaled lipid accumulation score,[2],inactive: ≤ 0
same,scaled lipid accumulation score,[1],inactive: ≤ 0
CCN1CCN(Cc2ccc(Nc3ncc(F)c(-c4cc(F)c5nc(C)n(C(C)C)c5c4)n3)nc2)CC1.CS(=O)(=O)O,scaled lipid accumulation score,[2],active: 0.963
same,scaled lipid accumulation score,[1],active: 0.943
